# The whole screen tested about 330,000 compounds, of which about 4,200 (1.3%) were called active. Inconclusive results, whose numbers are uncertain, are shown with a selection of clear calls. Calls come from the whole dose curve; as a rule, active = well fitted activation curve with a large enough effect; inconclusive = small, poorly fitted or top-dose-only effect; inactive = no such curve, though single readings can be large or run the other way. Where the call is inconclusive, the potency comes from a doubtful curve fit.
# Test: qHTS screen for small molecules that induce genotoxicity in human embryonic kidney (HEK293T) cells expressing luciferase-tagged ELG1; note: nearly all actives have a fitted effect of over 60% in size
# Conditions: HEK293T ELG1-luciferase reporter, luminescence, 16 h; series mostly up to 46 µM
# How it was run: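 DMSO vehicle served as control against compound-treated ELG1-luciferase HEK293T cells; exposure lasted 16 hr at 37 °C and 5% CO2, followed by ONE-Glo luminescence detection after 30 min.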
# Potency is the fitted concentration of half-maximal effect; tags give direction and shape of the fitted curve.
row,SMILES,Potency
1,Cc1cc(C(=O)CSc2n[nH]c(N)n2)c(C)n1-c1cccc(F)c1,"inconclusive: 16.4 µM [activator, single point]"
2,Cc1csc(NC(=O)c2ccccc2)n1,"inconclusive: 10.3 µM [activator, partial curve]"
3,CCOC(=O)c1[nH]c2ccc(F)cc2c1NC(=O)c1ccccc1C(=O)O,inactive
4,C/C(N)=C(/C#N)C(=O)COc1ccc(Cl)cc1Cl,"inconclusive: 20.6 µM [activator, partial curve, poor fit]"
5,CCCn1cnc2cc(NCc3ccccn3)ccc21,"inconclusive: 3.66 µM [activator, full curve]"
6,CCc1ccc(C(=O)NNc2ccc(Cl)cc2)cc1,"inconclusive: 14.6 µM [activator, partial curve]"
7,Cc1ccc(NC(=O)CCC(=O)N/N=C/c2ccccc2O)cc1,"inconclusive: 29.1 µM [activator, partial curve, poor fit]"
8,O=C(COc1ccccc1)Nc1cccc(-c2ccc(N3CCOCC3)nn2)c1,active: 2.31 µM
9,NC(N)=Nc1nc2ccc(Br)cc2c(=O)[nH]1,"inconclusive: 32.6 µM [activator, partial curve, poor fit]"
10,CC(C)CCN(C(=O)c1ccc(Br)cc1)c1c(N)n(Cc2ccccc2)c(=O)[nH]c1=O,inactive
11,O=S(=O)(Nc1cccc(-c2ccc(N3CCCCCC3)nn2)c1)c1ccccc1F,"inconclusive: 20.6 µM [activator, single point]"
12,Cc1ccc(CSc2ccc(-c3cccs3)nn2)cc1,active: 23.1 µM
13,O=C1C(Cl)=C(NCCc2ccccc2)C(=O)N1CCc1ccccc1,"inconclusive: 18.4 µM [activator, single point]"
14,CCOC(=O)c1sc(N)c(C(=O)OCC)c1C,"inconclusive: 16.4 µM [activator, single point]"
15,c1ccc2cc(OCc3nc4ccccc4[nH]3)ccc2c1,"inconclusive: 1.3 µM [activator, full curve, poor fit]"
16,CC1CCCN(S(=O)(=O)c2ccc3oc(=O)ccc3c2)C1 (stereo not drawn),inactive
17,CC(C)n1cc(/C=N/Nc2ccc(Cl)c(C(=O)O)c2)c2ccccc21,active: 8.2 µM
18,O=C(Nc1cccc(Cl)c1)NC1CCS(=O)(=O)C1 (stereo not drawn),inactive
19,CCCn1ncc(CN2CCC(n3nccc3NC(=O)CCc3ccccc3)CC2)c1C,inactive
20,COc1cccc2c1nc(C)c1cc(C)oc12,"inconclusive: 14.6 µM [activator, partial curve]"
21,COc1ccc(C(=O)N/N=C\c2coc3ccc(Cl)cc3c2=O)cc1,inactive
22,O=C(O)c1ccc(-n2cc(-c3cc4ccccc4oc3=O)[nH]c2=S)cc1,"inconclusive: 1.83 µM [activator, full curve]"
23,Cc1ccc(C(=O)/C=C/Nc2ccccc2C(N)=O)cc1,active: 6.51 µM
24,CC(=O)c1sc(N/N=C2\CC3CC2C(C)C3(C)C)nc1C (stereo not drawn),"inconclusive: 20.6 µM [activator, partial curve, poor fit]"

row,SMILES,Potency
1,CCOc1ccc(-n2nnnc2-c2nc3ccccc3s2)cc1,active: 18.4 µM
2,O=C(Nc1ccc2c(c1)OCO2)c1cc(Cl)ccn1,"inconclusive: 4.11 µM [activator, full curve]"
3,Cc1ccc(O)c(NC(=O)c2noc3c2CCCCC3)c1,"inconclusive: 2.59 µM [activator, full curve]"
4,O=C(Nc1ccc2c(c1)OCO2)c1n[nH]c(=O)c2ccccc12,"inconclusive: 20.6 µM [activator, partial curve, poor fit]"
5,Cc1cccc(-c2nc(C#N)c(N3CCCCC3)o2)c1,"inconclusive: 20.6 µM [activator, partial curve, poor fit]"
6,Cc1c(/C=C/C(=O)c2cccs2)cnn1C,active: 20.6 µM
7,CN(C)CCN=c1cc(-c2ccccc2)oc2ccc(Cl)cc12,"inconclusive: 13 µM [activator, partial curve, poor fit]"
8,CN(C)CCCNc1ncnc2c1cnn2-c1ccccc1,"inconclusive: 29.1 µM [activator, single point]"
9,O=C(Nc1ccc(Cl)cc1)OCc1ccccn1,inactive
10,Cc1ccc2nc(SCC(=O)N3CCOCC3)[nH]c2c1,active: 9.2 µM
11,Cc1ccc(-c2nc3cccnc3s2)cc1NS(C)(=O)=O,"inconclusive: 29.1 µM [activator, partial curve, poor fit]"
12,COc1cc(/C=N/Nc2ccccc2[N+](=O)[O-])ccc1OC(=O)c1ccccc1F,active: 2.59 µM
13,COc1ccc(N=Cc2nc(-c3ccccc3)oc2OC(=O)c2ccccc2)cc1,"inconclusive: 18.4 µM [activator, partial curve]"
14,Cc1ccc(NC(=O)Cc2ccc([N+](=O)[O-])cc2)c(Br)c1,"inconclusive: 29.1 µM [activator, partial curve, poor fit]"
15,CN(C)c1ccc(C(=O)OCC(=O)Nc2ccc(N3CCOCC3)cc2)cc1,"inconclusive: 29.1 µM [activator, single point]"
16,COC(=O)c1sc(-c2ccc(Cl)cc2)cc1NC(=O)COCC(=O)O,inactive
17,O=C(CCCN1CCOCC1)c1ccc2c(c1)OCCO2,"inconclusive: 13 µM [activator, partial curve, poor fit]"
18,CCOc1ccc(N=C(NN)c2ccc3ccccc3n2)cc1,"inconclusive: 10.3 µM [activator, partial curve, poor fit]"
19,COc1ccc(-n2nc(C(=O)O)c3ccccc3c2=O)c(OC)c1,inactive
20,COc1cccc(-c2cc(C(=O)NCc3ccco3)no2)c1,active: 10.3 µM
21,Cc1ccc(S(=O)(=O)N2C[C@@H]3CCCC[C@@H]3[C@@H](C)[C@H]2c2cn(Cc3ccccc3)c3ncccc23)cc1,inactive
22,C/C(=N/NC(=O)c1ccc2c(c1)OCO2)c1ccc(Br)s1,"inconclusive: 13 µM [activator, partial curve, poor fit]"
23,NC(=O)c1sc2cc(C(F)(F)F)cnc2c1-c1cccs1,inactive
24,CCc1nc2oc3cc(OC)ccc3c(=O)c2c(=O)n1-c1ccccc1,"inconclusive: 8.91 µM [activator, partial curve]"

# From PubChem BioAssay AID504466 (National Center for Advancing Translational Sciences (NCATS), 2011)
